Assay results from PubChem BioAssay (NCATS).
This is one part of the list. Further columns of the screen follow, without active or inactive calls. The note in brackets gives the kind of curve behind each potency; many fits are weak.

Assay: qHTS drug screen for cell cycle checkpoint inhibitors in PARPi-resistant BRCA-mutant ovarian cancer cell lines. (AID 1963452)
Settings: PEO1/OlaR viability, CellTiter-Glo luminescence, 96 h
Procedure, shortened: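 PEO1, PEO4 and PEO1/OlaR ovarian cancer cells, 600 per well, exposed 96 h at 37C to a dilution series. Viability read by CellTiter-Glo luminescence, normalized to DMSO and empty wells; activity summarized as Z-AUC.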

[1] = measured here: PEO1 parental viability
Tags tell the direction and shape of the fitted curve.

Compound | AC50 [1] | AC50 (measured here: PEO4 viability)
COC1(c2sc3c(N4CCOCC4)nc(-c4cnc(N)nc4)nc3c2C)COC1 | 0.389 µM [falling, full curve, poor fit] | 0.309 µM [falling, full curve]
CN(C)CCN1C(=O)c2cccc3cc(NC(N)=O)cc(c23)C1=O | 27.5 µM [falling, single point] | 27.5 µM [falling, single point]
CN(C)CCNC(=O)COc1c2cccc1Cc1cccc(c1OCC(=O)NCCN(C)C)Cc1cccc(c1OCC(=O)NCCN(C)C)Cc1cccc(c1OCC(=O)NCCN(C)C)C2 | 0.356 µM [falling, full curve] | 0.356 µM [falling, full curve]
C=CC(=O)N1CC/C(=C\c2ccc(F)c([N+](=O)[O-])c2)C(=O)/C(=C/c2ccc(F)c([N+](=O)[O-])c2)C1 | 0.174 µM [falling, full curve] | 0.195 µM [falling, full curve]
O=C(NO)c1cnc(N2C[C@H]3C[C@@H]2CN3c2cc(C(F)(F)F)ccn2)nc1 | 8.71 µM [falling, partial curve, poor fit] | 7.76 µM [falling, partial curve]
NC(=O)C1=C(O)[C@@]2(O)C(=O)C3=C(O)c4c(O)cccc4C[C@H]3C[C@H]2CC1=O | 12.3 µM [falling, partial curve, poor fit] | 3.09 µM [falling, full curve]
C#C[C@]1(O)CC[C@H]2[C@@H]3[C@H](C)CC4=C(CCC(=O)C4)[C@H]3CC[C@@]21C | 0.049 µM [falling, full curve] | 0.0087 µM [rising, full curve, poor fit]
CCCCCCCCc1ccc(CCC(N)(CO)CO)cc1 | 17.4 µM [falling, single point] | 21.9 µM [falling, single point]
CCN1C(=O)N2Cc3cc(OC)cc(OC)c3[C@@H](C)C=C2C12CCN(Cc1cc(C)cc(C)c1)CC2 | 21.9 µM [falling, single point] | 15.5 µM [falling, single point]
COC(=O)c1ccc([C@H]2c3[nH]c4ccccc4c3C[C@H](C(=O)OC)N2C(=O)CCl)cc1 | 24.5 µM [falling, single point] | 24.5 µM [falling, single point]
N#Cc1ccnc(Nc2cc(C3CCN(C4COC4)CC3)cc(N3CCC(F)(F)C3)n2)c1 | 4.9 µM [falling, partial curve] | 17.4 µM [falling, partial curve]
COc1cc2c(Oc3ccc4[nH]c(C)cc4c3F)ccnc2cc1OCC1(N)CC1 | 6.16 µM [falling, partial curve] | 6.16 µM [falling, partial curve]
O=C(Nc1cccnn1)N1CCC(=Cc2cccc(Oc3ccc(C(F)(F)F)cn3)c2)CC1 | 1.95 µM [falling, partial curve, poor fit] | 27.5 µM [falling, partial curve, poor fit]
CCCCCCNC(=O)n1cc(F)c(=O)[nH]c1=O | 4.36 µM [falling, partial curve] | 5.49 µM [falling, partial curve]
COc1cc(N2CCN(C)CC2)ccc1Nc1nccc(-c2cn(C)c3cnccc23)n1 | 6.16 µM [falling, partial curve] | 13.8 µM [falling, partial curve]
CN1CCN(c2ccc(C(=O)Nc3n[nH]c4ccc(Cc5cc(F)cc(F)c5)cc34)c(NC3CCOCC3)c2)CC1 | 5.49 µM [falling, full curve] | 3.09 µM [falling, full curve]
CC(C)n1nc(-c2cc3cc(O)ccc3[nH]2)c2c(N)ncnc21 | 6.16 µM [falling, partial curve] | 1.1 µM [falling, full curve]
Cc1ccc(NS(=O)(=O)c2cccc(C#N)c2)c2[nH]cc(C#N)c12 | 1.38 µM [falling, full curve] | 0.245 µM [falling, full curve]
CS(=O)(=O)N1CCC(NC(=O)c2[nH]ncc2NC(=O)c2c(Cl)cccc2Cl)CC1 | 1.74 µM [falling, full curve] | 2.19 µM [falling, full curve]
